Whole data set: some 110,000 compounds, median “z-score” near -0.1, cut for the highest 2% near 2. Some of the results follow. Activity calls are given as the source filed them.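 How the source made its calls: active means z-score in the third read window above 3 or below -3; inactive means the rest.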
These compounds were tested against Metabotropic glutamate receptor 8 (Rattus norvegicus) (UniProt P70579) (assay: mGluR8 Gi/Go-coupled signaling modulation – cell-based, rat, thallium flux, HTS, primary screen (AID 488969)). Settings: HEK293 rat mGluR8, GIRK (G protein-gated inwardly rectifying potassium channel) thallium flux, FluoZin2; at 10 µM; stronger effect = higher value; submaximal glutamate (EC20) added with thallium.
Chain of UniProt P70579 (P70579 whole entry, looked up): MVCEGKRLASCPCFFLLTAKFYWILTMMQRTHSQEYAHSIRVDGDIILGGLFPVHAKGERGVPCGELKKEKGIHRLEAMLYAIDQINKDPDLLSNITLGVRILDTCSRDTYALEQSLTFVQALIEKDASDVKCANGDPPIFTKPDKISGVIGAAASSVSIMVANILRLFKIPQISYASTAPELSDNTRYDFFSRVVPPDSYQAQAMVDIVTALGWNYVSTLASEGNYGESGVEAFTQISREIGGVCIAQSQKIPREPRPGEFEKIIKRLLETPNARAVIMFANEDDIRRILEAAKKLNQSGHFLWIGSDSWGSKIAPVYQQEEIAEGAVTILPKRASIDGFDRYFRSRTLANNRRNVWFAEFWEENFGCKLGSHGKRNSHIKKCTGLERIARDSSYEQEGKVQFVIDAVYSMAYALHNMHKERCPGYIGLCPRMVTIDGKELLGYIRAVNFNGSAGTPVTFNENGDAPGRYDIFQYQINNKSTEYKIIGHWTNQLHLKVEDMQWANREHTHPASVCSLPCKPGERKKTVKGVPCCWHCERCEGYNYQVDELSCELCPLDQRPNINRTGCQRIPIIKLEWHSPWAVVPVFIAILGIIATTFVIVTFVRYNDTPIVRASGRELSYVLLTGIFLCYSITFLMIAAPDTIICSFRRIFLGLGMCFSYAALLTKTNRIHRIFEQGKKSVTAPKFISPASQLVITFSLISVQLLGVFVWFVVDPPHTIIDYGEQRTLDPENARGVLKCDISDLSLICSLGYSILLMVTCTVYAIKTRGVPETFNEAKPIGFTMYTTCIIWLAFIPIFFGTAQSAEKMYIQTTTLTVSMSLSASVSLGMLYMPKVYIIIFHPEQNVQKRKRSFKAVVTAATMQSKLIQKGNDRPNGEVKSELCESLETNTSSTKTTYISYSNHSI

Compound | z-score
CCN1/C(=C/c2ccc3ccccc3[n+]2CC)C=Cc2ccccc21 | 1.38
O=S(=O)(c1ccccc1)c1nc(-c2cccs2)oc1NCCCn1ccnc1 | -0.173
CC(=O)Oc1ccc(C(=O)Nn2cnnc2)cc1 | -0.0435
N#Cc1nc(-c2cccs2)oc1N1CCN(c2ccccc2)CC1 | -0.374
CS(=O)(=O)N1CCCC(C(=O)NCCCN2CCOCC2)C1 (stereo not drawn) | -0.405
COc1ccccc1C(=O)Nc1ccc2c(c1)nc(CN1CCN(C(C)=O)CC1)n2C | -0.426
Cc1cccc(OCC(O)Cn2c(=N)n(CCN3CCCCC3)c3ccccc32)c1 (stereo not drawn) | active: 5.06
CCCCCSc1nc2c(c(=O)[nH]c(=O)n2C)n1C | -0.00746
CCc1ccc(-c2cc(C(=O)NCc3ccccn3)c3ccccc3n2)cc1 | -0.425
O=[N+]([O-])c1ccc(CSc2nnc(SCc3ccc(Cl)cc3)s2)cc1 | 0.0566
COc1ccc(CCNC(=O)c2cc(C(=O)c3cc(C)ccc3O)cn(CCc3ccc(OC)cc3)c2=O)cc1 | -0.303
CCn1nnnc1-c1ccc(OC)c(S(=O)(=O)Nc2ccc(C(=O)OC)cc2)c1 | -0.213
CCOC(=O)C1=C(O)/C(=C\c2ccc(CNC(=O)C(=O)Nc3ccccc3)o2)N=C1C | -1.36
Cc1cccc(-n2c(=S)[nH]c3c(oc4ccccc43)c2=O)c1 | 0.184
Cc1[nH]nc2c1C(c1ccc(-c3ccccc3C#N)o1)C(C#N)=C(N)O2 (stereo not drawn) | -0.475
CCOC(=O)Cc1csc(N/N=C/c2ccccc2)n1 | -0.453
CCOc1ccc(C(=O)Nc2c3c(nn2-c2cccc(Cl)c2)CS(=O)C3)cc1 (stereo not drawn) | -0.429
CCCC(=O)Nc1ccc(NC(=O)C23CC4CC(CC(C4)C2)C3)cn1 | active: 5.76
CCN1CCN(C(=O)CCCn2c(C)c3cnn(-c4ccccc4)c(=O)c3c2C)CC1 | 0.177
CNC(=O)COC(=O)c1cc2c(C)nn(-c3ccc(F)cc3)c2s1 | -0.0264
COC(=O)c1cc(NC(=O)CN(c2ccc3c(c2)OCO3)S(C)(=O)=O)ccc1Cl | -0.226
Cc1cc(NS(=O)(=O)c2ccc(NC(=O)COc3ccc(Cl)cc3)cc2)no1 | -0.253
CC(C)n1c(/N=C/c2c[nH]c3ccccc23)nc2ccccc21 | -0.751
S=C(Nc1cccc(Cl)c1Cl)Nn1cnnc1 | -0.236
COc1ccc(CN2CCn3ncc(C(=O)Nc4cccc(C)c4)c3C2=O)cc1 | -0.137
Cc1oc(-c2cccs2)nc1CS(=O)CC(=O)NC1CCCCCC1 (stereo not drawn) | -0.2
CC(C)Oc1ccccc1C1Nc2ccccc2C(=O)N1c1ccc2c(c1)OCCO2 (stereo not drawn) | active: -4.87

Compound | z-score
Fc1ccc(CSc2nsc(SCc3ccc(F)cc3)n2)cc1 | 1
Cc1c(C(=O)Nc2ccncc2)oc2c1C(=O)CC(C)(C)C2 | -0.597
COc1ccc(CCNc2oc(-c3cccc4ccccc34)nc2P(=O)(OC)OC)cc1OC | -0.375
CCC(C)NC(=O)c1cc(-c2ccccc2O)on1 (stereo not drawn) | 1.37
CC12CN3CC(C)(CN(C1)C3c1ccccc1Cl)C2O (stereo not drawn) | 0.177
CCN(CC)CC#CCC1(O)c2ccccc2-c2ccccc21 | -0.382
COc1ccccc1CC(=O)NCc1ccc2c(c1)OCO2 | 0.129
COCCn1c(=NC(C)=O)sc2cc([N+](=O)[O-])ccc21 | -0.298
COc1ccc(NC(=S)N2CCNC(=O)C2CC(=O)Nc2cccc(Cl)c2C)cc1 (stereo not drawn) | -0.0109
COc1ccc2nc(NC(=O)CCNS(=O)(=O)c3ccc4c(c3)oc(=O)n4C)sc2c1 | 0.223
CCOC(=O)C1(O)CSc2nc3sc(C(=O)O)c(C)c3c(=O)n21 (stereo not drawn) | -0.357
CCN1C(c2ccccc2)=C(c2ccccc2)S/C1=C/C=C1\SC(=S)N(C)C1=O | -0.0724
CC(=O)c1ccc(NC(=S)NC(=O)CC(C)C)cc1 | -0.0881
O=[N+]([O-])c1cccnc1N1CCC(c2cc(-c3cccc(C(F)(F)F)c3)n[nH]2)CC1 | -0.378
O=C(N/N=C/c1ccccc1F)c1csc2c1CCCC2 | -0.0423
COc1cc([N+](=O)[O-])ccc1NC(=O)C[n+]1ccccc1C | -0.116
CCN(CC)CCNC(=O)CCCNC(=O)Cn1cnc2sc(C)c(C)c2c1=O | 0.445
Cc1ccc(Nc2nnc(SC3CCOC3=O)s2)cc1 (stereo not drawn) | -0.0252
CCC(=O)n1nc(-c2ccc(OC)cc2)nc1SC | -0.632
CN1CCN(C(=O)C2CCCCC2C(=O)O)CC1 (stereo not drawn) | 0.0479
O=C(NC(=O)c1cccc(Cl)c1)OC[C@@H]1CCCN2CCCCC12 (stereo partly drawn) | -0.259
CCOC(=O)c1cccc(Nc2ncnc3ccc(C)cc23)c1 | -1.58
Cc1cccc(-c2nnc(SCC(=O)NCc3ccc4c(c3)OCO4)n2C)c1 | 0.105
O=C(OCc1ccc(Cl)cc1)c1cnccn1 | 0.349
O=C(CCC1CCCC1)Nc1ccc([N+](=O)[O-])cn1 | -0.0597
Cc1cc(C)cc(NC(=O)Cc2ccc(-n3cccc3)cc2)c1 | -0.02

Reference: PubChem BioAssay AID488969 (Vanderbilt High Throughput Screening Facility, 2010)
